Data taken from the BET-seq Pho4 binding data (Le et al. 2018).
This is one part of the list. These are noisy estimates, calculated here from bound and input reads.

Molecular target: T1, Pho4 (S. cerevisiae) (UniProt P07270)
T1 sequence: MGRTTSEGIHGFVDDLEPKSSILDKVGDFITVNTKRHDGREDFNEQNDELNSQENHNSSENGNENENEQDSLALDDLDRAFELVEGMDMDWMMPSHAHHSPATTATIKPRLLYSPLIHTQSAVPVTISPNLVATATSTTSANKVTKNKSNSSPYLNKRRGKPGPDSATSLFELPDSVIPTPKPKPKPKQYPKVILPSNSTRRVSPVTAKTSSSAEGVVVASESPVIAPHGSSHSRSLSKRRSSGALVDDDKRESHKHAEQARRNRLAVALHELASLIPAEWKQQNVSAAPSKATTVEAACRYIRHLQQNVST
Assay: relative binding free energy (BET-seq); higher = weaker binding
Conditions: reference: library average

Sequence | relative binding free energy [kcal/mol]
GGGGGCACGTGGTTTA | -0.03
GGGTGCACGTGGGGTC | -0.1
AGGGGCACGTGAGTGA | 0.17
TAGGGCACGTGGGGCT | -0.31
GGAGACACGTGCTGGT | -0.13
GAGGACACGTGTGTTA | 0.15
GGGAGCACGTGGCCGT | 0.03
GGTGTCACGTGCGCGA | 0.11
ACTTTCACGTGGGTCT | 0.2
GTTAGCACGTGTTTCT | -0.04
TTAGTCACGTGAAGGC | 0.31
ATGGCCACGTGAGGAG | 0.1
ATTCACACGTGGGGAT | -0.01
CAGGGCACGTGAGGGA | 0.02
TTGAACACGTGTGTGG | 0
AGTGACACGTGGGTAC | -0.22
CATGTCACGTGTGTCT | 0.31
CGGTGCACGTGAAGCG | 0.25
TGTATCACGTGTCGGC | 0.23
TTAGACACGTGCAGTG | -0.09
TTGGGCACGTGCGCGG | -0.25
TCGGACACGTGAGGTA | 0.28
TGTTACACGTGATAGA | 0.28
GGCAGCACGTGTAGTA | 0.03
TTGTGCACGTGGCGAC | -0.02
GGTGCCACGTGGTTAA | -0.07

Sequence | relative binding free energy [kcal/mol]
CTTGGCACGTGGTTAA | -0.09
GTATTCACGTGTCAAG | 0.28
CGTGTCACGTGAGCGG | 0.25
TTAGACACGTGATAAT | 0.19
GAAGACACGTGCGGGT | 0
AAGTCCACGTGGGTGT | -0.18
ATGGTCACGTGTTATG | 0.06
GGCTTCACGTGAGTGT | 0.35
AGTGACACGTGTGGGG | 0.02
TTTGACACGTGTGGCT | 0.1
GGGTTCACGTGTGCGA | 0.36
GATTACACGTGTGAGG | 0.22
TTCGGCACGTGAGGGT | 0.04
TGGTTCACGTGAAATT | 0.38
ATATTCACGTGCGATG | 0.15
GTTGTCACGTGGGAAA | 0.27
TGAGGCACGTGTTTTG | 0
TTGTACACGTGGATTC | 0.07
TGTAACACGTGTCTGT | -0.03
ATTGACACGTGACGGT | 0.01
ATAATCACGTGTGGTC | 0.21
GTCTTCACGTGTAAAT | 0.42
TTAAGCACGTGTTGAT | -0.02
TTAAGCACGTGGTCTT | -0.15
TTCGTCACGTGTTCAG | 0.18
GTCGGCACGTGTGGAT | -0.02

Sequence | relative binding free energy [kcal/mol]
GAGTGCACGTGATGGT | 0.2
GTGAACACGTGGTGGT | 0.01
TGATCCACGTGATTGG | 0.13
TTGGGCACGTGGGCCT | -0.25
TTATGCACGTGGAATT | 0.16
ATTTACACGTGTTGGG | 0.15
GGCGGCACGTGGTCGT | 0
ACAGTCACGTGTAGTT | 0.1
GTTGTCACGTGATAGC | 0.2
TGAGGCACGTGGCTAG | -0.2
TTATGCACGTGTTTGC | -0.04
TTGCTCACGTGGTTAG | 0.16
ATGGTCACGTGTGTAT | 0.13
TTAATCACGTGAATGC | 0.34
TTGGGCACGTGTGGTT | -0.03
TAAAACACGTGGGAGG | -0.1
AAATACACGTGCGGGT | 0.13
TAAAGCACGTGTTGAG | -0.08
AGTCGCACGTGTTGTC | 0.2
TGAAACACGTGGTCGG | -0.1
GGGTACACGTGTTTCT | 0.06
TTTATCACGTGTACGG | 0.1
GTAGACACGTGATGTT | 0.23
GAGGTCACGTGGGTTC | 0
TATTACACGTGAGGGT | 0.31
GTTTGCACGTGCGGGT | 0.01

Sequence | relative binding free energy [kcal/mol]
AGCTTCACGTGTGGGT | 0.26
AGTTTCACGTGCGATG | 0.18
GGCATCACGTGTTTTG | 0.18
GGGGACACGTGGGCGA | 0.09
ACGTGCACGTGTGTGC | -0.08
GTAATCACGTGCTGGT | 0.18
TTTATCACGTGTCTAT | 0.13
TGTGACACGTGACAGT | 0.25
CAGTGCACGTGGATGG | 0
ATTCGCACGTGTTGAT | -0.03
ATAGCCACGTGTGTGG | -0.18
TAGCTCACGTGGGGGG | 0.01
AGAATCACGTGGAAAG | 0.48
AATGTCACGTGAGAGA | 0.28
TGGGGCACGTGGGGGT | -0.19
CGAGGCACGTGATGGT | 0.03
GGCAACACGTGGGCGG | -0.02
AATGCCACGTGTGTCG | 0.08
AGTTTCACGTGGGGAC | 0.06
TTACTCACGTGTTTAG | 0.25
TCATTCACGTGGGGAG | 0.08
GTGTTCACGTGTTACG | 0.11
TAGTTCACGTGAGGAG | 0.47
TGGTCCACGTGTTTTT | 0.09
TGAAGCACGTGGGCAG | -0.18
CAGGTCACGTGTTATT | 0.02

Sequence | relative binding free energy [kcal/mol]
TTGCACACGTGTTTAT | 0.09
CTGGGCACGTGTGAGA | 0.14
TGGTTCACGTGTTCCG | 0.3
GGGGACACGTGCGGTT | 0.01
GGCGGCACGTGGGGAT | -0.08
TGTTACACGTGTTGTA | 0
TTTTACACGTGAATGT | 0.41
AGTGACACGTGGGGTC | -0.19
GAGTTCACGTGATATT | 0.18
TTATACACGTGGAAAG | 0.06
TATGACACGTGGGTAA | -0.1
GTAAGCACGTGCGGTT | 0.06
GAGTACACGTGATGTT | 0.25
TCGGACACGTGGGGGA | -0.14
ATAGACACGTGAGGCG | 0.23
AATGTCACGTGGGGAC | 0.09
TGTGTCACGTGTGGCT | 0.07
AGCGTCACGTGTCGTG | -0.05
AAGGTCACGTGGAGCT | 0.02
GAGGGCACGTGCGTTA | -0.03
TGGGTCACGTGCGGAT | 0.1
AGTATCACGTGGGTTC | 0
TGGTCCACGTGGTAAT | 0.1
ATCTTCACGTGGGATG | 0.15
GGGATCACGTGATTTT | 0.38
TTGTGCACGTGTCAGT | -0.06

Sequence | relative binding free energy [kcal/mol]
GGTGACACGTGCGGGA | 0.03
TTGTGCACGTGTCAAG | 0.04
ATGTTCACGTGGGAAT | 0.29
TATACCACGTGGTAGG | -0.12
GGGTACACGTGTGTCA | 0.09
CGCTTCACGTGAGTGG | 0.25
TGTGGCACGTGTGGCG | 0.05
TCGATCACGTGAGTTA | 0.39
ATGGTCACGTGCGTTA | 0.12
GTTGTCACGTGCGGCT | 0.24
GGGTGCACGTGGGAGC | -0.07
ATGAGCACGTGGGTTG | -0.15
ATCGGCACGTGGTAGG | -0.06
TCTTACACGTGTTTTA | 0.13
AAAAGCACGTGGTGAT | -0.01
TAAGGCACGTGGACAG | -0.09
TTATTCACGTGGAGAG | 0.28
CTTACCACGTGTTGGT | 0
ATGGTCACGTGGGGGC | -0.02
GAGGCCACGTGGGTGC | -0.1
GGGCGCACGTGACGGT | 0.1
GTTTGCACGTGTGTCT | 0.01
GTATGCACGTGGTTAC | -0.04
CTGATCACGTGGAGGT | 0.06
CATAGCACGTGGGGTG | -0.46
TGTTACACGTGTCATT | 0.13

Sequence | relative binding free energy [kcal/mol]
AGGAGCACGTGAGATT | 0.15
GATGGCACGTGGTGGG | -0.02
GATGGCACGTGTGAGC | 0.08
AATAGCACGTGCGGTA | 0.02
AGAATCACGTGAGGGG | 0.38
TCAATCACGTGAGTGT | 0.23
GTGCTCACGTGTACGG | 0.25
TTGAACACGTGATGGA | 0.11
TAGACCACGTGTTGTG | -0.16
AGTGTCACGTGACTGC | 0.22
GGCATCACGTGGATGT | 0.19
GTCGGCACGTGTTGGA | 0.06
GAAATCACGTGTATAT | 0.22
TAGTACACGTGGCTTT | 0.13
TGGGTCACGTGAAGCA | 0.37
CGTTACACGTGGGAGT | 0.02
TTAGTCACGTGGATAC | 0.12
ATAGACACGTGAGTGT | 0.16
TTAGTCACGTGGGGAT | 0.09
AGCGGCACGTGTGCTT | -0.04
TGCGTCACGTGTATGT | 0.15
ACTGGCACGTGGTTGT | -0.09
TGGAACACGTGTTAAT | 0.11
CTCGGCACGTGGCTGG | -0.14
TTGCACACGTGTTGTA | -0.03
TAGGTCACGTGATAGG | 0.26

Sequence | relative binding free energy [kcal/mol]
GGGTCCACGTGTCGTG | 0.13
CAGGGCACGTGAGTGA | 0.18
CATGTCACGTGGTGAG | 0.12
GGGCGCACGTGGAGTT | 0.07
AGATTCACGTGTTGAA | 0.24
CGTAACACGTGATTTT | 0.25
GTTTCCACGTGAAGGT | 0.5
TGGTCCACGTGGATGG | -0.02
GGAGACACGTGCTGTG | 0.07
TAAAGCACGTGGTGCG | -0.19
GTTAACACGTGAGCGT | 0.11
GGTTACACGTGGTTTA | 0.09
TTTGGCACGTGTGCTT | -0.02
GACCGCACGTGAGGGG | 0.17
TTATTCACGTGTCTGG | 0.35
TTGATCACGTGTACAT | 0.14
GTTTTCACGTGTGGGA | 0.38
GGTGGCACGTGTAAGC | 0.09
GTTGACACGTGGTGAG | 0
ATCGTCACGTGAAGTT | 0.35
TATTACACGTGAGGCT | 0.24
GTATTCACGTGGGTCT | 0.25
TATGCCACGTGCGGGG | -0.3
CGTGTCACGTGTTGGG | 0.06
AGATCCACGTGGGGTA | 0.02
TCGGGCACGTGTTCAT | 0.13

Sequence | relative binding free energy [kcal/mol]
TAAATCACGTGGGTTA | 0.12
TAGGTCACGTGAGTGG | 0.2
TTTCTCACGTGTGTTG | 0.22
TTAGTCACGTGGCGAT | 0.09
TAGCTCACGTGGGGCA | 0.06
TTGGTCACGTGCTTGG | 0.22
TGCGGCACGTGTTAAT | -0.08
ATGGACACGTGGCGGC | -0.06
GTTTGCACGTGTGAAG | 0.05
TCAGGCACGTGGGGCT | -0.28
CGCGACACGTGGGGGG | -0.18
GGTCTCACGTGTTTCG | 0.21
ATTGACACGTGATAGT | 0.04
ACGCGCACGTGGGGGA | -0.25
TAGTGCACGTGTGGCC | -0.02
GTGTTCACGTGAGCGT | 0.31
GCTCGCACGTGGTAGG | -0.02
CATTGCACGTGGAGAT | 0.1
GAGGTCACGTGGTTCT | 0.16
TTTGTCACGTGATAGG | 0.25
TAGTACACGTGGTGCT | -0.09
TGGGACACGTGTCAGT | 0.09
